About 450 (0.94%) of roughly 48,000 compounds were called active. Another 19% or so got no clear call; they are omitted. Calls follow the shape of the dose curve; as a rule, active = well fitted inhibition curve with a large enough effect; inconclusive = small, poorly fitted or top-dose-only effect; inactive = no such curve, though single readings can be large or run the other way. The list shows a part of the results.
Assay: Primary qHTS for Identification of Small Molecule Inhibitors of Huntingtin Promoter Activity; also: nearly all actives have a fitted effect of over 50% in size
Details: HEK293 HTT promoter firefly luciferase reporter (activity 0% = vehicle and -100% = no light), 24 h; series mostly up to 57.5 µM; activity change, negative = inhibition: at the top concentration
Outline: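 Firefly luciferase signal from promoter-reporter HEK293 cells was scaled between vehicle (0%) and zero RLU (-100%). Compounds were tested at final concentrations of up to 57.5 uM over 24 h at 37 degrees C. PTC124 at 50 uM final served as control inhibitor.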

Activity change, negative = inhibition, inactive:
Cc1ccc(-n2ncc3c(NCCC4=CCCCC4)ncnc32)cc1C -22.9%
COc1cccc(-c2nc(C(N)=O)c3c(n2)n(-c2ccc4c(c2)OCO4)c(=O)n3C)c1OC -12.6%
CSc1nc2c([nH]c3ccccc32)c(=O)n1-c1ccc(F)cc1 -13.1%
O=C(Cn1cc(S(=O)(=O)Cc2ccc(F)cc2)c2ccccc21)NCc1ccccc1 -20.5%
COc1ccccc1CCNC(=O)c1cccn1-c1nnc(N2CCCCC2)s1 -12.1%
CCOc1ccc(-c2cc(C(F)(F)F)c(C#N)c(SCC(=O)Nc3ccccc3)n2)cc1 -9.47%
CCCNC(=O)CN1C(=O)c2cccnc2Sc2ccccc21 -3.12%
C[C@@H]1CN(c2c(F)c(N)c3c(=O)c(C(=O)O)cn(C4CC4)c3c2F)C[C@H](C)N1
Cc1cccc(NC(=O)CSc2nc(C)c(Cc3ccccc3)c(=O)[nH]2)c1 -10.7%
COc1ccccc1N1CCN(C(=O)c2c3c(nc4ccccc24)C(=O)N(C2CCCCC2)C3)CC1 -14.7%
Cc1ccc(C)c(N2CCN(C(=O)c3c4c(nc5ccccc35)C(=O)N(C3CCCCC3)C4)CC2)c1 -29.8%
O=C(N/N=C/c1ccccc1O)c1ccncc1 -24.5%
CCC(C)NC(=O)c1sc2nc(C)c(C(=O)Nc3ccc(Cl)cc3)c(-c3ccc(Br)cc3)c2c1N (centres undefined) -22.8%
CCCOc1cccc(C(=O)Nc2ccc(-c3nc4ccccc4o3)cc2)c1 9.19%
COc1ccc2cc(CNc3ccc(OC)c(OC)c3)c(=O)n(CC(=O)Nc3ccc(C)cc3)c2c1 -29.1%
COc1cc(OC)cc(-n2c(=O)c3ccccc3n(CC(=O)NCCc3ccc(OC)c(OC)c3)c2=O)c1 -7.73%
O=c1cc(-c2ccc(F)cc2)nc(SCc2nc(-c3cccc(C(F)(F)F)c3)no2)[nH]1 7.98%
COc1ccc(NC(=O)CN2C(=O)C3(SCC(=O)N3c3ccccc3)c3ccccc32)cc1Cl (centres undefined) -35.6%
Cc1ccc(C(C)C)cc2c(C)ccc1-2 2.14%
O=C(Cn1ncn2nc(-c3cccs3)cc2c1=O)NCc1ccccc1Cl -12.7%
CCc1ccc(N2C(=O)CSC23C(=O)N(Cc2cccc(OC)c2)c2ccccc23)cc1 (centres undefined) -35.2%
CCn1c(=NC(=O)c2ccc(S(=O)(=O)N3CCCC3)cc2)sc2cc(Br)ccc21 -5.13%
CCOC(=O)c1c(C)c(-c2ccccc2)n(CC(=O)NC2CCCCCC2)c1C -8.52%
COc1cccc(NC(=O)Cn2cc(C(=O)c3ccc(F)cc3)c(=O)c3cc(OC)ccc32)c1 -16.8%
Cc1cccc(Cn2cnc3c(oc4ccccc43)c2=O)c1 1.8%
CCc1oc2ccccc2c1C(=O)c1cc(I)c(O)c(I)c1 -11.8%
COc1ccc(-c2c(C)nn3c(N4CCN(c5ccccc5F)CC4)cc(C)nc23)cc1OC -8.52%
N#Cc1ccc(NC2=NS(=O)(=O)c3ccccc32)cc1 -17.3%
CCC(=O)N1CCc2cc(CNS(=O)(=O)c3ccc(Br)s3)ccc21 -16.4%
Cc1cc(C)cc(NC(=O)N2CCC(CN3CCc4ccccc4C3)CC2)c1 -26.1%
CCN1CCN(C(c2ccccc2F)c2c(O)cc(C)n(CCOC)c2=O)CC1 (centres undefined) -9.39%
CCCN(CCC)CCNC(=O)c1sc2nc3n(c(=O)c2c1C)CCCCC3 -3.03%
COC(=O)c1c(NC(=O)c2nc(SCc3ccccc3C)ncc2Cl)sc2c1CCCC2 2.03%
Cc1ccc(C)c(N2C(=O)N(C)c3ccccc3S2(=O)=O)c1 -27.4%
COc1ccc(-n2c(C)nc3cc(C(=O)NC4CCCCCC4)ccc32)cc1 -25.7%
CCOc1ccccc1CNC(=O)c1cnc2sc(N3CCOCC3)nn2c1=O 0.496%
CCOc1ccc(CCNC(=O)Cn2ncc3c([nH]c4ccccc43)c2=O)cc1OCC 1.03%
OCCN1CCN(C(c2ccc(Cl)cc2Cl)c2sc3nc(-c4ccco4)nn3c2O)CC1 (centres undefined) 16.1%
CCc1nc2ccc(C(=O)NCc3ccc(SC)cc3)cc2nc1CC 15.8%
CCOc1ccc(-n2c(SCC(=O)Nc3ccc4c(c3)OCCO4)nc3c([nH]c4ccccc43)c2=O)cc1 -4.99%
Clc1ccccc1-c1nnc(-c2ccccc2CNc2ccc(Br)cc2)o1 27.7%
COc1ccc(-c2cc(OC(=O)c3ccccc3)c3c(C)oc(C)c3c(=O)c2)cc1OC -22.1%
CC(C)c1ccc2c(c1)NC(c1ccncc1)=NC(c1cccs1)=N2 0.984%
CCc1cccc(NC(=O)C(NS(=O)(=O)c2ccc3nc(C)sc3c2)C(C)C)c1 (centres undefined) -7.45%
CCOc1ccccc1NC(=O)CCc1c(C)nc2c(c(C)nn2-c2ccccc2)c1C 8.39%
C#CCSc1nc(-c2ccccc2)c2cc(Cl)ccc2n1 -16%
Cc1ccc(Cl)cc1N1CCN(C(=O)c2ccc3c(c2)N(Cc2ccccc2F)C(=O)c2ccccc2S3=O)CC1 (centres undefined) -14.7%
O=C(CCS(=O)(=O)c1cc(Br)cc2c1N(C(=O)C1CC1)CC2)Nc1ccc(F)cc1 -13.3%
Cc1ccc(CNC(=O)c2sc3nc(-c4ccccc4)cn3c2C)cc1 -27.5%
O=C(NCc1ccc(F)cc1)c1ccc(Cn2c(SCc3ccc(F)cc3)nc3cccnc32)cc1 -22%
CC(C)Cn1c(=O)c2ccccc2n2c(CCC(=O)NCc3ccc(Cl)cc3)nnc12 -8.13%
CCCN1C(=O)c2[nH]nc(-c3cccc(OC)c3)c2C1c1ccccn1 (centres undefined) -9.31%
CC(C)(C)NC(=O)[C@H]1CN(Cc2cccnc2)CCN1C[C@@H](O)C[C@@H](Cc1ccccc1)C(=O)N[C@H]1c2ccccc2C[C@H]1O -12.8%
Cn1nnc2c(NCc3ccccc3)ncnc21 -1.41%
Cc1cc(C)cc(-n2c(C)nc3cc(C(=O)NCc4ccc(F)cc4)ccc32)c1 -5.94%
CCC(C)NC(=O)c1ccc2c(c1)N(Cc1ccccc1F)C(=O)c1ccccc1S2=O (centres undefined) -9.82%
CCOc1ccc(CCNC(=O)c2cn(-c3cccc(OC)c3)c(=O)c3ccccc23)cc1 -7.7%
O=C(CCC(=O)N1CCSc2ccccc21)NCc1ccccc1Cl -21.2%
Cc1cccc(Nc2cc(Cl)nc(SCC(=O)O)n2)c1C -5.1%
CCCCn1c(=N)c(C(=O)NC2CCCCC2)cc2c(=O)n3cccc(C)c3nc21 -3.73% [at 11.5 µM]
Cn1c(=O)oc2cc(S(=O)(=O)NCCC(=O)NCc3ccc(F)cc3)ccc21 -3.98%
CC(CNS(=O)(=O)c1ccc2c(c1)CC(=O)N2C)c1ccccc1 (centres undefined) -13%
Cc1ccc(C(C)C)c(OCCCn2c(=O)oc3ccccc32)c1 -5.13%
CCOC(=O)c1c(C)oc2nc(C)nc(NCCCN3CCN(c4ccc(F)cc4)CC3)c12 -0.49%
COc1ccccc1NC(=O)c1ccc2oc(=O)c(S(=O)(=O)c3ccccc3)cc2c1 -4.65%
Cc1cc(N2CCN(c3cccc(C)c3C)CC2)n2nc(C)c(-c3ccc(Cl)cc3)c2n1 -9.53%
CCOc1ccc(C2c3c(oc4ccccc4c3=O)C(=O)N2c2nnc(C)s2)cc1OC (centres undefined) -12.3%
COc1ccc(-n2c(-c3ccco3)nc3c(cnn3-c3ccccc3C)c2=O)cc1 -16.3%
Cc1cccc(Cn2cnc3c(cnn3-c3ccc(Cl)cc3)c2=O)c1 -9.73%
Cc1cc(C)c2oc(C(=O)Nc3ccc(S(=O)(=O)N4CCC(C)CC4)cc3)cc(=O)c2c1 1.12%
Cc1ccc(CN2CCN(C3CCN(C(=O)Nc4ccccc4C(F)(F)F)CC3)C(=O)C2=O)cc1 -3.69%
Cc1cc(C)n2c(Nc3ccccc3)c(-c3ccccc3)nc2n1 -4.79%
CCn1c(=O)cc(OCC(=O)N2CCN(c3ccccc3OC)CC2)c2ccccc21 -1.54%
Cc1ccc(S(=O)(=O)n2nc(-c3ccco3)nc2NCc2ccccc2Cl)cc1 -2.38%
Cc1cccc(C)c1NC(=O)CCCN1C(=O)CCn2nc(-c3cn(C)c4ccccc34)cc21 3.71%
CC(NC(=O)c1ccc2c(c1)N(Cc1ccc(Cl)cc1)C(=O)c1ccccc1S2=O)c1ccccc1 (centres undefined) -20.9%
COc1ccc(Cl)cc1NC(=O)Cn1cnc2c1c(=O)n(C)c(=O)n2C -1.74%
CC(C)NC(=O)C1CCCN(c2ncnc3c2nc2n3CCCCC2)C1 (centres undefined) -71.6%
CCCN1CCN(c2cc3c(cc2F)c(=O)c(S(=O)(=O)c2ccc(Cl)cc2)cn3C)CC1 -18.9%
Cn1c(=O)n(C)c2cc(N3CCOCC3)c(NC(=O)c3c(F)cccc3F)cc21 6.75%
COc1ccc(C(=O)NCC(c2ccc(N(C)C)cc2)N2CCc3ccccc32)cc1 (centres undefined) -18%
CCc1cc2c(-c3ccccc3)cc(=O)oc2c2c1OCN(Cc1ccc(F)cc1)C2 -27.1%
COc1cc(OC)c(NC(=O)Nc2c(C)n(C)n(-c3ccccc3)c2=O)cc1Cl -22.1%
O=C(NC1CC(=O)N(c2cccc(F)c2)C1)C(c1ccccc1)c1ccccc1 (centres undefined) -5.24%
Cc1cn([C@@H]2C[C@@H](O)[C@H](CO)O2)c(=O)[nH]c1=O -0.212%
CCC1C(=O)OCC1Cc1cncn1C (centres undefined) 4.83%
CCC(Oc1ccccc1)C(=O)Nc1ccc(OCc2cc(=O)n3ccccc3n2)cc1 (centres undefined) 8.62%
CCOc1ccc(CNC(=O)C2Cc3ccccc3N2C(=O)CC)cc1 (centres undefined) -3.65%
CO[C@H]1C=CO[C@@]2(C)Oc3c(C)c(O)c4c(O)c(c5c(c4c3C2=O)NC2(CCN(CC(C)C)CC2)N=5)=NC(=O)C(C)=CC=C[C@H](C)[C@H](O)[C@@H](C)[C@@H](O)[C@@H](C)[C@H](OC(C)=O)[C@H]1C -15.2%
CCOC(=O)c1cc(NC(=O)c2ccc(Cl)cc2)c(=O)n2c1oc1ccccc12 -0.518%
NC(=O)c1ncn([C@@H]2O[C@H](CO)[C@@H](O)[C@H]2O)c1O 0.158%
O=C(Nc1ccc(Br)cc1)c1cccc(C(=O)Nc2ccc(Br)cc2)c1 -23.8%
O=S(=O)(c1ccc(Cl)cc1)c1nc(-c2ccccc2)oc1N1CCN(c2ccccc2)CC1 -17.6%
CCOc1ccc(C2CC(=O)c3c([nH]c(C(=O)OC4CCC(C)CC4)c3C)C2)cc1 (centres undefined) -5%

From PubChem BioAssay AID1508623 (National Center for Advancing Translational Sciences (NCATS), 2021)
